Data published in ChEMBL document CHEMBL1201862, “PubChem BioAssay data set” (2004).

System: NCI-H322M
Assay: DTP human tumour cell line panel, 48 h

Row | SMILES | GI50
1 | CCOC(=O)C12CCC(=O)C=C1[C@@H](C)C(=O)CC2 (some centres not stated) | inactive: > 100 µM
2 | COc1cc(C(=O)C/C(CCC(=O)Nc2ccc(Cl)cc2Cl)=N/Nc2nnc(C)n2N)ccc1O | inactive: > 100 µM
3 | C[C@H]1O[C@@H](C(C)(C)C)OC(=O)[C@@H]1C(OC(=O)c1ccccc1)c1cccc2ccccc12 (some centres not stated) | inactive: > 100 µM
4 | CC(C(O)c1ccccc1)[N+](=O)[O-] (configuration not stated) | inactive: 44.1 µM
5 | CCOC(=O)C(C)c1nc2cc(F)c(N3CCOCC3)cc2[nH]c1=O (configuration not stated) | inactive: 65.9 µM
6 | NC1CC(=O)c2c(Cl)sc(Cl)c21 (configuration not stated) | inactive: 12.2 µM
7 | O=[N+]([O-])c1ccc(CN(CCCl)OCCCl)cc1 | inactive: > 100 µM
8 | Cc1ccc(S(=O)(=O)NNC(C[N+](=O)[O-])c2ccccc2)cc1 (configuration not stated) | inactive: 29.2 µM
9 | COC1=CC(C2c3cc4c(cc3[C@@H](Nc3ccc([N+](=O)[O-])cc3)C3COC(=O)[C@H]23)OCO4)=CC(=O)C1=O (some centres not stated) | inactive: 23.6 µM
10 | CN(Cc1ccccc1)C(=O)c1ccccc1C(=O)O | inactive: > 100 µM
11 | Cc1cc2c3c([nH]c2c2ccnc(C)c12)CCCC3 | inactive: 3.36 µM
12 | Nc1nc(-c2ccc(Cl)c([N+](=O)[O-])c2)cs1 | inactive: > 100 µM
13 | Cn1c(=O)oc2cc(C3CCC(=O)N3Cc3ccc(Cl)cc3)ccc21 (configuration not stated) | inactive: > 100 µM
14 | NC(Cc1ccccc1CP(=O)(O)O)C(=O)O (configuration not stated) | inactive: > 100 µM
15 | CC12CCC3C(CCC4(O)C=CCCC34C=O)C1(O)CC(O)C2c1ccc(=O)oc1 (configuration not stated) | active: 0.0562 µM
16 | C=C1CC(Cn2cc(C)c(=O)[nH]c2=O)(c2ccc(Cl)cc2)OC1=O (configuration not stated) | inactive: 16.8 µM
17 | O=C(NNc1cn[nH]c(=O)n1)c1cccc2nc3ccccc3nc12 | inactive: 38.6 µM
18 | COC1C(O)C(C)OC(O[C@H]2CC[C@@]3(C)C(CC[C@@H]4[C@@H]3CC[C@]3(C)[C@@H](C(C)OC5OC(CO)C(O)C(O)C5O)CC[C@]43O)C2)C1O (some centres not stated) | inactive: > 25 µM
19 | CCOC(=O)c1cc2c(OC(C)=O)ccc(OC(C)=O)c2s1 | inactive: 14.4 µM
20 | O=C1NN=C(c2ccc([N+](=O)[O-])cc2)C1n1nc(-c2ccccc2)c2ccccc2c1=O (configuration not stated) | inactive: > 100 µM
21 | CCN1CCC(O)(/C=C/c2ccccc2C)C(C(=O)/C=C/c2ccccc2C)C1 (configuration not stated) | inactive: 3.48 µM
22 | CC1=NN2C(c3ccc([N+](=O)[O-])cc3)=CSC2=NC(C)(C)C1 | inactive: > 100 µM
23 | COc1ccc(/N=N/c2c(C)c(C#N)c(=S)n(C3OC(CO)C(O)C(O)C3O)c2-c2ccccc2)cc1 (configuration not stated) | inactive: 42.5 µM

Row | SMILES | GI50
24 | CNC(=O)OCc1c(CO)nc(SC)n1C | inactive: > 100 µM
25 | O=C(/C=C(\Nc1ccccc1O)c1ccccc1)C(=O)NC12CC3CC(CC(C3)C1)C2 | inactive: > 10 µM
26 | CCSCCCC(=O)O | inactive: > 100 µM
27 | Cc1ccc(S(=O)(=O)NC(=O)NC(Cc2c[nH]c3ccccc23)C(=O)O)cc1 (configuration not stated) | inactive: > 100 µM
28 | O=c1oc(-c2ccc(O)cc2)cc2cc(O)ccc12 | inactive: 26.5 µM
29 | COc1ccc(/N=c2\ssc3c(=S)ssc23)cc1 | inactive: > 100 µM
30 | Oc1ccccc1/C=N/c1ccc(-c2nc3ccccc3[nH]2)cc1 | inactive: 74.5 µM
31 | COc1cccc2cc(C(=O)NC34CC5CC(CC(C5)C3)C4)c(=N)oc12 | inactive: 98.4 µM
32 | CC(C(=O)OCc1ccccc1)(c1ccco1)N1C(=O)OC(c2ccccc2)C1c1ccccc1 (configuration not stated) | inactive: > 100 µM
33 | CCCC1(NC(=O)C(F)(F)F)CC(OC)OC2COC(c3ccccc3)OC21 (configuration not stated) | inactive: > 100 µM
34 | CCN(CC)N1C(=O)[N-][N+](CC)(CC)C1=O | inactive: > 100 µM
35 | c1ccc2c(c1)nc1n2CSC1 | inactive: > 100 µM
36 | CC(=O)NC(CCCNC(=O)NCCCl)C(=O)NCc1ccccc1 (configuration not stated) | inactive: > 100 µM
37 | Cc1cc(C(C)(C)C)c(OCCCN2CCOCC2)c(C(C)(C)C)c1 | inactive: 18 µM
38 | O=C(Nc1sccc1S(=O)(=O)c1ccc(Cl)cc1)c1ccc(F)cc1F | inactive: 68.2 µM
39 | O=CN/C=C/c1ccccc1O | inactive: > 100 µM
40 | O=c1c2cc(Br)ccc2nc(-c2ccccc2)n1NCC1(O)OCC(O)C(O)C1O (configuration not stated) | inactive: > 100 µM
41 | CNC(=O)C1(C#N)C(c2ccccc2)C(C#N)(C(=O)NC)C1c1ccccc1 (configuration not stated) | inactive: > 100 µM
42 | NC(=O)NC1C(c2ccccc2)=C1c1ccccc1 | inactive: 19.9 µM
43 | CCCCCC1=C/C(=C\c2[nH]c(-c3ccc[nH]3)cc2OC)N=C1C | active: 0.0201 µM
44 | CC12c3ccccc3C(OC=O)(c3ccccc31)C1(C)c3ccccc3C2(OC=O)c2ccccc21 | inactive: > 100 µM
45 | C#C[C@]1(O)CC[C@H]2[C@@H]3CCC4=C/C(=N\OCCN(CC)CC)CC[C@]4(C)[C@H]3CC[C@@]21C | inactive: 6.89 µM
46 | COc1cccc(-c2nc(O)c3ccccc3n2)c1 | inactive: 17.1 µM

Row | SMILES | GI50
47 | NC(=S)N1N=C(c2ccccc2O)CC1c1ccccc1 (configuration not stated) | inactive: 19 µM
48 | C/C(=N\NC(=S)N(C)C)c1ccccn1 | active: 0.00272 µM
49 | C/C(=N\N=C(N)N)c1sc(-c2nc(C)c(/C(C)=N/N=C(N)N)s2)nc1C | inactive: > 100 µM
50 | C/C=C(C)/C=C/CC(C)CCC=C(C)C (configuration not stated) | inactive: > 100 µM
51 | CC/C(=C(\c1ccccc1)c1ccc(OCC[N+](C)(C)C)cc1)c1ccccc1 [TAMOXIFEN METHYL IODIDE] | inactive: 17.8 µM
52 | COc1ccc2[nH]c(C(O)(Cc3cccnc3)Cc3cccnc3)cc2c1 | inactive: > 100 µM
53 | CSCCC(NC(=O)C(Cc1ccccc1)NC(=O)CNC(=O)CNC(=O)C(N)Cc1ccc(O)cc1)C(=O)O (configuration not stated) | inactive: > 100 µM
54 | Oc1ncnc2c1nnn2CCCCCCCCCCCCn1nnc2c(O)ncnc21 | inactive: > 100 µM
55 | O=C1C[C@H](COCc2ccccc2)NC(=O)C[C@H](COCc2ccccc2)NC(=O)C[C@H](COCc2ccccc2)N1 | inactive: > 100 µM
56 | C=CCNC(=S)N1CC(C)C(=O)Nc2cc(Cl)ccc21 (configuration not stated) | inactive: > 100 µM
57 | O=C(O)C1CC(C2CCCCN2)CN2CCCCC12 (configuration not stated) | inactive: > 100 µM
58 | Oc1cc(O)c2c(c1)O[C@H](c1cc(O)c(O)c(O)c1)[C@H](O)C2 [EPIGALLOCATECHIN] | inactive: 45 µM
59 | NC(=O)NC1NC(=O)NC1=O (configuration not stated) [ALLANTOIN] | inactive: > 100 µM
60 | CCCCN(CCCC)c1c([N+](=O)[O-])c(=O)nc2ccccn12 | inactive: 23.1 µM
61 | CC(C)Cn1cnc2c(Cl)nc3ccccc3c21 | inactive: 86.3 µM
62 | Cc1ccc(N2C(=O)CS/C2=C(\C#N)c2nc3ccccc3[nH]2)cc1 | inactive: 50.4 µM
63 | Cc1ccc(S(=O)(=O)NNS(C)(=O)=O)cc1 | inactive: > 100 µM
64 | CC(C)(C)OC(=O)[C@H]1CCC(=S)N1Cc1ccccc1 | inactive: > 100 µM
65 | O=c1oc2c3ccc4ccccc4c3n(CCN3CCCCC3)c2c2ccccc12 | inactive: 41.5 µM
66 | Brc1ccc2[nH]cc([C@H]3CN[C@@H](c4c[nH]c5ccc(Br)cc45)CN3)c2c1 | inactive: 2.8 µM
67 | COC(=O)C1(Cc2ccc3c(c2)CCC3)Cc2ccc3c(c2C1=O)CCC3 (configuration not stated) | inactive: 36.1 µM
68 | CS(C)(=O)=N/C=C\C(=O)C(Cl)(Cl)Cl | inactive: > 100 µM
69 | NS(=O)(=O)c1nnc(NS(=O)(=O)C(F)(F)F)s1 | inactive: > 100 µM

Row | SMILES | GI50
70 | C[C@]12CC[C@H](O)CC1=CC[C@@H]1C2CC[C@]2(C)C(=O)NC(=O)CC12 (some centres not stated) | inactive: 95.7 µM
71 | C[N+](C)([O-])Cc1cc(-c2ccccc2)ccc1O | inactive: > 100 µM
72 | COc1ccc(CSc2nc3ccccc3nc2-c2cccs2)cc1 | inactive: > 100 µM
73 | CC1(C)OCC(C2OC(OC(=O)c3ccc([N+](=O)[O-])cc3)C3OC(C)(C)OC23)O1 (configuration not stated) | inactive: > 100 µM
74 | CC(C(=O)O)c1ccc(-c2ccccc2)c(F)c1 (configuration not stated) [FLURBIPROFEN] | inactive: > 100 µM
75 | CC1(C)[C@@H]2C[C@H]1C(Cc1cccc(C[C@H]3c4cc(-c5ccccn5)ncc4[C@H]4C[C@@H]3C4(C)C)c1)c1cc(-c3ccccn3)ncc12 (some centres not stated) | active: 0.701 µM
76 | CC(C)C(C(=O)N(C)C(Cc1ccccc1)C(=O)N(C)C(C(=O)N(C)C(C(=O)N1CCCC1C(=O)OC(C)(C)C)C(C)C)C(C)C)N(C)C (configuration not stated) (ξNMe2Val-[NMeF][NMeV][NMeV]P-OtBu; configuration not given here) | inactive: 65 µM
77 | CN(CCNC(=S)c1cn(C)c2c1ccc1ccccc12)CCNC(=S)c1cn(C)c2c1ccc1ccccc12 | inactive: > 100 µM
78 | CCOC(=O)Cc1nc2c(N)ncnc2n1C1OC(COC(C)=O)C(OC(C)=O)C1OC(C)=O (configuration not stated) | inactive: > 100 µM
79 | CC(=O)O[C@@H]1CC(C)C2CC2C2=C(C(O)OC2O)[C@@H]1C(C)CCC=C(C)C (some centres not stated) | inactive: 26.5 µM
80 | CCN(CC)c1ccc(C2NC(=O)c3ccccc3N2)cc1 (configuration not stated) | inactive: 5.09 µM
81 | COc1ccc2c(c1)/C(=C\c1c(Cl)[nH]c3ccccc13)C(=O)N2 | inactive: 5.5 µM
82 | Cc1c(-c2ccccc2)[nH]n(C2=NCCN2)c1=O | inactive: > 100 µM
83 | CC1=[N+]([O-])c2ccccc2C(=O)C1=O | inactive: > 100 µM
84 | COC(=O)C(=C\Sc1ccccc1)/C=C/C(=O)OC(C)(C)C | inactive: 17.1 µM
85 | COc1nc2ccc(COc3ccc(C(=O)NC(CCC(=O)O)C(=O)O)cc3)cc2nc1OC (configuration not stated) | inactive: > 10 µM
86 | N/N=C1\C(=O)N(CCc2ccccc2)C(=O)C1C(=O)NCCc1ccccc1 (configuration not stated) | inactive: > 100 µM
87 | CCn1c(=O)c2nc(SC)sc2n(-c2ccccc2)c1=S | inactive: > 100 µM
88 | S=c1[nH]nc(Cn2c3ccc(Br)cc3c3nc4ccccc4nc32)o1 | inactive: 30.4 µM
89 | CC(=O)OCC1OC(OC2CC3C(C)(C)C(OC(C)=O)CC[C@]3(C)C3CCC45CC4(CC[C@H]5C(C)CC(O)C4OC4(C)C)[C@]23C)C(O)C(O)C1O (some centres not stated) | active: 0.906 µM
90 | Cc1[nH]n(-c2ncc(C(=O)O)c(=O)[nH]2)c(=O)c1CCO | inactive: > 97.3 µM
91 | Fc1ccc(NC(=S)SCc2ccc3c(c2)OCO3)cc1F | inactive: 20.1 µM
92 | N#CC(C#N)=c1ccc(=C2NCC3CCCN23)cc1 (configuration not stated) | inactive: > 100 µM

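Compound exposure: 48 hours, 5 concentrations, 96-well plates. Abbreviation: GI50, concentration required for 50% inhibition of growth.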 The source made the active and inactive calls. Rule as the data show it: active = GI50 up to about 1.1 µM and inactive = higher. Square brackets hold non-standard residues; d marks the D form. Peptide text beside a SMILES is read from it. * marks the point of attachment. ξ: configuration not given here. NMeF = CN[CH](Cc1ccccc1)C(=O)O; ξNMe2Val = CC(C)C(C(=O)*)N(C)C; NMeV = CN[CH](C(=O)O)C(C)C; OtBu = CC(C)(C)O*
